Results are given in words; binding and its absence hold for the method and conditions named. Some results given as binding are weak or reduced against the parent protein; the word gives no strength.
Tests used:
human Claudin 6 [1] = target: T1, human Claudin 6 (human, UniProt P56747 1-220); assay: flow cytometry, HEK293/H_CLDN6 cells
T1 sequence (looked up): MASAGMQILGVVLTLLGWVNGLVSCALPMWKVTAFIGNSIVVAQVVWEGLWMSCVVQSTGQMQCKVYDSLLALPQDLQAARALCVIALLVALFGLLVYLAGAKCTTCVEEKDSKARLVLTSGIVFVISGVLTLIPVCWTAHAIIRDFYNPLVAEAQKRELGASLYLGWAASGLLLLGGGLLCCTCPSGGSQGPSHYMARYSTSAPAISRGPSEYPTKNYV

human Claudin 9 = target: T2, human Claudin 9 (human, UniProt O95484 1-217); assay: flow cytometry, HEK293/H_CLDN9 cells
T2 construct: whole, on cells; also called CLDN9; CLND9
T2 sequence (looked up): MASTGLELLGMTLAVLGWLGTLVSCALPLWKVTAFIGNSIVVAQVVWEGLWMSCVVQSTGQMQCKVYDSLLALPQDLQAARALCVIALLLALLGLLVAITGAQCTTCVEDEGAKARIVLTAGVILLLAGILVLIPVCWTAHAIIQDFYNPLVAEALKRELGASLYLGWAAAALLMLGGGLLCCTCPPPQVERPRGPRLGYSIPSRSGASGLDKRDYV
Procedure: In this example, cell-based binding of z5 toward human CLDN9 engineering expressing cells were assessed using flow cytometry.
Briefly, 2 cell lines were incubated with antibodies (from 100 nM, 6 folds dilution, 8 points) at 4° C. for 60 minutes. Cells were pelleted and washed twice with 2% FBS/PBS buffer, and stained with fluorescent conjugated secondary antibody at 4° C. for 30 minutes. After that the cells were washed twice and resuspended in 80 μL of 2% FBS/PBS buffer. Fluorescent signal of binding was detected using Agilent. The EC50 was calculated using the GraphPad software.

rat Claudin 6 (rat) = target: T3, rat Claudin 6 (rat) (UniProt B4F7F0); assay: flow cytometry, engineered cells expressing rat CLDN6
T3 sequence: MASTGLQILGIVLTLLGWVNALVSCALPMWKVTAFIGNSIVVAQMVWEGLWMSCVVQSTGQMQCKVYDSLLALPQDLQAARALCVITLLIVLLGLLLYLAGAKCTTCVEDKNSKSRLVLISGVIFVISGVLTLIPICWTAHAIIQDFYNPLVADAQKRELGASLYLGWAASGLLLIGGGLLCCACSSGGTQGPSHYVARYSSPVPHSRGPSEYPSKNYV

human Claudin 6 [2] = target: T1, human Claudin 6; assay: flow cytometry, Ovcar3 and Ov90 cells (endogenous CLDN6)

B1: 59-H12C5 (antibody, V domains shown)
VH: EVQLVESGGGLVQPGGSLKLSCAASGFTFSSHGMSWVRQTADRGLELVASINSNGGRTYYPDSMKGRFTISRDNAKNTLYLQLSSLQPEDTALYYCACYYDNTYYAMDYWGQGTSLTVSS
VL: QIVLTQSPAIMSASLGERVTMTCTASSSVSSSSLHWYQQKPGSSPKLWIYTTSTLASGVPARFSGSGSGTSYSLTISSMEAEDAATYYCHQYHRSPPTFGGGTKLEIK
notes: Tested as chimeric antibody
binding (human Claudin 6 [1]): binds
binding (human Claudin 9): binds

B2: 67-C12E11 (antibody, V domains shown)
VH: EVQLQQSGPELVKPGASVKISCKTSGYTFTEYTMHWVKQSHGKSLEWIGGINPNNGGTSYNQKFKGKATLTVDKSSSTAYMELRSLTSEDSAVYYCARGMVVAFYFDSWGQGTTLTVSS
VL: DIQMTQSPASQSASLGESVTITCLASQTIGSWLAWYQQKPGKSPQLLIYAATSLADGVPSRFSGSGSGTKFSFKISSLQAEDFVSYYCQQLYSTPYTFGGGTKLEIK
notes: Tested as chimeric antibody
binding (human Claudin 6 [1]): binds

B3: 59-A2E6 (antibody, V domains shown)
VH: EVQLQQSGPELVKPGASVKISCKTSGYTFTEYTMHWVKQSHGKSLEWIGGINPKNGGTSYNQKFKGKATLTVDKSSSTVYMEFRSLTTEDSAVYYCARGMLVAFYFDCWGQGTTLTVSS
VL: DIQMTQSPASQSASLGESVTITCLASQTIGTWLAWYQQKPGKSPQLLIYAATSLADGVPSRFSGSGSGTKFSFKISSLQAEDFVSYYCQQLYSTPYTFGGGTKLEIK
notes: Tested as chimeric antibody
binding (human Claudin 6 [1]): binds

B4: 81-H10F8 (antibody, V domains shown)
VH: EVQLQQSGPELVKPGASVKISCKTSGYTFTEYTMHWVKQSHGKSLEWIGGINPNNGGTSYNQKFKGKATLTVDKSSRTAYMELRSLTSEDSAVYYCARGMVVAFYFDCWGQGTTLTVSS
VL: DIQMTQSPASQSASLGESVTITCLASQTIGTWLAWYQQKPGKSPQLLIYAATGLADGVPSRFSGGGSGTKFSFKISSLQVEDFVSYYCQQLYSTPYTFGGGTKLEIK
notes: Tested as chimeric antibody
binding (human Claudin 6 [1]): binds

B5: 97-C10E1-2-P1.z5 (antibody, V domains shown)
VH: QVQLVQSGAEVKKPGASVKVSCKASGYAFTGYTMNWVRQAPGQGLEWIGLSNPYNAGTIYNQKFKGRVTMTVDKSTSTVYMELSSLRSEDTAVYYCARNYYYGSSYAYYYAMDYWGQGTTVTVSS
VL: DIVVTQSPSSLSTSVGDRVTITCRSSTGAVTTSNYANWVQEKPGKAFKGLIGGTNNRAPGVPARFSGSLSGDDAALTISSAQPEDFATYFCALWYSNHWVFGGGTKVEIK
notes: also called candidate antibody
binding (human Claudin 9): no binding (tested: 100 nM (highest concentration tested))
binding (rat Claudin 6 (rat)): binds

B6: 97-C10E1-2 (antibody, V domains shown)
VH: EVQLQQSGPELVKPGASMKISCKASGYAFTGYTMNWVKQSHGKNLEWIGLSNPYNGGTIYNQKFKGKATLTVDKSSSTAYMELLSLTSEDSAVYYCARNYYYGSSYAYYYAMDYWGQGTSVTVSS
VL: QAVVTQESALTTSPGETVTLTCRSSTGAVTTSNYANWVQEKPDHLFTGLIGGTNNRAPGVPARFSGSLIGDKAALTITGAQTEDEAIYFCALWYSNHWVFGGGTKLTVL
notes: Tested as chimeric antibody; also called chimeric antibody 97-C10E1-2
binding (human Claudin 6 [1]): binds
binding (human Claudin 6 [2]): binds

B7: 85-H10A5 (antibody, V domains shown)
VH: EVQLQQSGPELVKPGASVKISCKTSGYTFTEYPMHWVKQSHEKSLEWIGGINPKNGDANSNQKFKGKATLTVDKSSSTAYMELRSLTSEDSAVYYCARGWLLLFDVWGAGTMVTVSS
VL: DIQMTQSSSSFSVSLGDRVTISCKASEDIYNRLAWYQQKPGNAPRLLISGATSLETGIPSRFSGSGSGKDYTLSITTLQTEDVAAYYCQQYWSSPLTFGAGTKLELR
notes: Tested as chimeric antibody
binding (human Claudin 6 [1]): binds

B8: 83-F6A6 (antibody, V domains shown)
VH: QVQLQQSAPELARPGASVRMSCKASGYTFTTYTMHWVKQRPGQGLEWIGFIIPSSGYTEYNQNLKDKTTLTADKASSTAYMQLTSLTSEDSAVYYCARQFSLITTGFGYALDYWGQGTSVTVSS
VL: DIVMTQSRKFMSTSVGDRVSITCKASQDVSTAVAWYQQKPGQSPKLLLYWASTRHTGVPDRFTGSGSGTDYTLTISSVQAEDLALYYCQQHYSTPLTFGAGTKLELK
notes: Tested as chimeric antibody
binding (human Claudin 6 [1]): binds

B9: 97-C10E1-2-P1.z2 (antibody, V domains shown)
VH: QVQLVQSGAEVKKPGASVKVSCKASGYAFTGYTMNWVRQAPGQGLEWIGLSNPYNAGTIYNQKFKGRVTMTVDKSTSTVYMELSSLRSEDTAVYYCARNYYYGSSYAYYYAMDYWGQGTTVTVSS
VL: EAVVTQSPATLSVSPGERATLSCRSSTGAVTTSNYANWVQEKPGQAFRGLIGGTNNRAPGIPARFSGSLSGDEATLTISSLQSEDFAVYFCALWYSNHWVFGGGTKVEIK
binding (human Claudin 9): no binding (tested: 100 nM (highest concentration tested))
